In all, about 310,000 compounds went through this assay and about 2,200 (0.71%) showed an effect of 50% or more. The effect is printed as a negative number. The list shows a part of the results.
Each compound was assayed against human ether-à-go-go-related gene (hERG) potassium channel (human, UniProt Q12809) (assay: primary screen, population patch clamp on CHO cells stably expressing hERG).
Chain of human ether-à-go-go-related gene (hERG) potassium channel (Q12809 whole entry, looked up): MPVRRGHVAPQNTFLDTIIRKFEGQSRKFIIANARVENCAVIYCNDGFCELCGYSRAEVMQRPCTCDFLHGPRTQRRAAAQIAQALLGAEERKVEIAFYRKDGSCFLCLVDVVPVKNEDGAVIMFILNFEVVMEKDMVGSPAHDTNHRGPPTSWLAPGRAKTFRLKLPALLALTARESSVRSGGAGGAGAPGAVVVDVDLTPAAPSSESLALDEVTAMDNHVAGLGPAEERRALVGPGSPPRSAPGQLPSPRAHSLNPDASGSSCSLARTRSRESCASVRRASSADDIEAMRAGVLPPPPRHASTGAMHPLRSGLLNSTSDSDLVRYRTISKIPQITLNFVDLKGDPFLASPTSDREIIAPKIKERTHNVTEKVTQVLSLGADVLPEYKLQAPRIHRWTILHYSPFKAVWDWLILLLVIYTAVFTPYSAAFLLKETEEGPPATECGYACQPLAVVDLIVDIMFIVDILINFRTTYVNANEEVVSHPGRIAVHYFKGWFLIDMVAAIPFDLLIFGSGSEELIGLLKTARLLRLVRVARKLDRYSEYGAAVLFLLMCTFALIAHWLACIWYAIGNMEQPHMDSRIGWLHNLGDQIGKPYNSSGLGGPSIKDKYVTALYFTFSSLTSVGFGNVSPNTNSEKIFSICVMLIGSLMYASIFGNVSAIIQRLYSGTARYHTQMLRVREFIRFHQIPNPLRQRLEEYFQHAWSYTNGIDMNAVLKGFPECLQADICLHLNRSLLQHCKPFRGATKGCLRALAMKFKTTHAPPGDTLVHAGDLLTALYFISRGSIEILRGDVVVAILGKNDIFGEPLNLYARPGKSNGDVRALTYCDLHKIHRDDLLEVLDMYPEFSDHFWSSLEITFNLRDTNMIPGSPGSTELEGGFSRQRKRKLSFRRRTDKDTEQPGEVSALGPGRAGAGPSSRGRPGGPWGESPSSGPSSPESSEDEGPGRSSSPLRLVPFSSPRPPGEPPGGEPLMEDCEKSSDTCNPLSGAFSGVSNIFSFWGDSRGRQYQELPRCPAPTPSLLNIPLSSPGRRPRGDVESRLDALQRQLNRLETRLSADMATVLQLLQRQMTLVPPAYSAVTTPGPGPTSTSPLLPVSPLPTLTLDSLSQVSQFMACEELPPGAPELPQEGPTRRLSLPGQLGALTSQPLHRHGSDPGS

`CN(C)CCCN(C(=O)c1ccc(S(=O)(=O)N2CCc3ccccc32)cc1)c1nc2ccc(Cl)cc2s1.Cl` was tested. Which “hERG current change (%, negative = inhibition) at 1uM” value did it give?
The value was 13.7%.

With `Cc1nc(NC(C)c2ccccc2)sc1C(=O)Nc1ccccc1` (centres unmarked) as the compound, how does the “hERG current change (%, negative = inhibition) at 1uM” value read?
Its value is 8.64%.

For `Cc1ccc(OCCNC(=O)CNC(=O)c2ccc3c(c2)OCO3)cc1`, which “hERG current change (%, negative = inhibition) at 1uM” value is on record?
The value was 12.3%.

`Cc1ccc(-c2ccc(=O)[nH]n2)cc1` was tested. Which “hERG current change (%, negative = inhibition) at 1uM” value did it give?
The value was 13.5%.

Which “hERG current change (%, negative = inhibition) at 1uM” value does the source give for `Cc1nc(-c2ccccc2)nc2[nH]ccc(=O)c12` here?
The value was 9.81%.

Which “hERG current change (%, negative = inhibition) at 1uM” value does the source give for `N#CC(c1cccc(Cl)c1)c1ccc2c(C(F)(F)F)cc(C(F)(F)F)nc2n1` (centres unmarked) here?
Its value is 6.85%.

With `Cn1ccnc1COc1ccc(C=O)cc1` as the compound, how does the “hERG current change (%, negative = inhibition) at 1uM” value read?
The value was 12%.

With `O=C(NC1CCCCC1)N1CCN(CCc2ccccc2)CC1` as the compound, how does the “hERG current change (%, negative = inhibition) at 1uM” value read?
The value was 7.82%.

`Cc1c(N=Cc2cc(Br)cc(Br)c2O)cccc1C(=O)O` was tested. Which “hERG current change (%, negative = inhibition) at 1uM” value did it give?
The value was 14.8%.

`O=C(Cc1ccc(S(=O)(=O)N2CCCCC2)s1)Nc1ccc(F)cc1F` was tested. Which “hERG current change (%, negative = inhibition) at 1uM” value did it give?
The value was 8.57%.

`CCCC[C@H]1COCCS(=O)(=O)N1Cc1cccc(Cl)c1` was tested. Which “hERG current change (%, negative = inhibition) at 1uM” value did it give?
The value was 6.74%.

`O=c1oc2ccccc2cc1-c1csc(NN=C2CCCC2)n1` was tested. Which “hERG current change (%, negative = inhibition) at 1uM” value did it give?
The value was 10.4%.

Which “hERG current change (%, negative = inhibition) at 1uM” value does the source give for `CCOC(=O)CCC(=O)OCC(=O)NC(C)C1CC2CCC1C2` (centres unmarked) here?
The value was 18.1%.

How did the “hERG current change (%, negative = inhibition) at 1uM” value turn out when `N#CC1=C(S)N=C(N)C(c2nc(-c3ccccc3)cs2)C12CCCCC2` (centres unmarked) was run?
Its value is 14.1%.

Which “hERG current change (%, negative = inhibition) at 1uM” value does the source give for `CCCCNC(=O)N1CCc2ccccc2C1` here?
Its value is 16.9%.

Which “hERG current change (%, negative = inhibition) at 1uM” value does the source give for `CN(C)CCNc1c2c(nc3ccccc13)CCC2` here?
Its value is 10.7%.

How did the “hERG current change (%, negative = inhibition) at 1uM” value turn out when `O=c1c(C(c2ccc(Cl)cc2)c2c(O)nc3n(c2=O)CCCS3)c(O)nc2n1CCCS2` was run?
The value was 15.8%.

How did the “hERG current change (%, negative = inhibition) at 1uM” value turn out when `CCN(c1ccccc1)S(=O)(=O)c1cc2c(cc1C)NC(=O)CO2` was run?
The value was 9.44%.

How did the “hERG current change (%, negative = inhibition) at 1uM” value turn out when `CCn1cc(CNC(=O)c2cc(-c3cc(OC)ccc3OC)nc3ccccc23)c(C)n1` was run?
Its value is -12.5%.

For `COc1ccccc1N1CCN(C(=O)c2ccc(Cn3c(=O)[nH]c4ccsc4c3=O)cc2)CC1`, which “hERG current change (%, negative = inhibition) at 1uM” value is on record?
Its value is 8.13%.

For `Cc1ccc(NC(=O)CN2C(=O)NC3(CCCC3)C2=O)nc1`, which “hERG current change (%, negative = inhibition) at 1uM” value is on record?
The value was 5.36%.

For `Cc1sc2nc(COC(=O)c3cccc(S(=O)(=O)N(C)c4ccccc4)c3)[nH]c(=O)c2c1C`, which “hERG current change (%, negative = inhibition) at 1uM” value is on record?
Its value is 11.8%.

With `O=C(OCC(=O)N1CCCc2ccccc21)c1cccc(C(F)(F)F)c1` as the compound, how does the “hERG current change (%, negative = inhibition) at 1uM” value read?
The value was 4.13%.

Which “hERG current change (%, negative = inhibition) at 1uM” value does the source give for `COc1ccc(Cn2c(C3CC3)nc3ccc(NC(C)=O)cc3c2=O)cc1` here?
Its value is 11.4%.

Which “hERG current change (%, negative = inhibition) at 1uM” value does the source give for `COc1ccc(C)cc1NC(=O)c1nnn(Cc2cccc(C(F)(F)F)c2)c1N` here?
The value was 16.9%.

Which “hERG current change (%, negative = inhibition) at 1uM” value does the source give for `COc1ccccc1N1CCN(C(=O)CCNC(=O)c2ccco2)CC1` here?
Its value is 9.04%.

For `Cc1ccn2c(C(=O)CSc3ccccc3Cl)c(C)nc2c1`, which “hERG current change (%, negative = inhibition) at 1uM” value is on record?
The value was 12%.

With `CCc1ccc(CN2C(=O)c3ccccc3C2C(=O)NC(C)CC)cc1` (centres unmarked) as the compound, how does the “hERG current change (%, negative = inhibition) at 1uM” value read?
The value was 15.6%.

With `O=C(c1ccc2ccccc2c1)C1CCCN(C(=O)c2noc3c2CCCC3)C1` (centres unmarked) as the compound, how does the “hERG current change (%, negative = inhibition) at 1uM” value read?
Its value is 11%.

`Clc1ccc(-c2noc(CCCOc3ccccc3)n2)cc1` was tested. Which “hERG current change (%, negative = inhibition) at 1uM” value did it give?
Its value is 9.45%.

`C/C(=N\OC(=O)c1ccc(C)cc1)c1c(C)nc2cc(C)ccn12` was tested. Which “hERG current change (%, negative = inhibition) at 1uM” value did it give?
Its value is 13.4%.

`CCOC(=O)c1c(N=CN(C)C)c(C#N)c2n1CCCC2` was tested. Which “hERG current change (%, negative = inhibition) at 1uM” value did it give?
The value was 7.82%.

For `CN(C(=O)CC1C(=O)NCCN1Cc1ccc(F)cc1Cl)C1CCCCC1` (centres unmarked), which “hERG current change (%, negative = inhibition) at 1uM” value is on record?
The value was 5.64%.

With `CCOC(=O)c1nn(-c2ccc(F)cc2)c(-c2ccccc2)c1C(=O)c1ccccc1` as the compound, how does the “hERG current change (%, negative = inhibition) at 1uM” value read?
Its value is 13.9%.

`Cc1onc(-c2c(F)cccc2Cl)c1C(N)=S` was tested. Which “hERG current change (%, negative = inhibition) at 1uM” value did it give?
Its value is 4.06%.

With `COc1cc(/C=C/C(=O)O)cc(S(=O)(=O)N2CCN(S(=O)(=O)c3ccc(Cl)cc3)CC2)c1OC` as the compound, how does the “hERG current change (%, negative = inhibition) at 1uM” value read?
The value was 16%.

`Cc1ccc2[nH]c3c(=O)n(CCCN4CCOCC4)cnc3c2c1` was tested. Which “hERG current change (%, negative = inhibition) at 1uM” value did it give?
The value was -0.039%.

Which “hERG current change (%, negative = inhibition) at 1uM” value does the source give for `COc1cccc(-c2cc(C(=O)Nc3ccncc3)c3ccccc3n2)c1` here?
Its value is 1.47%.

`CCOC(=O)c1[nH]c2ccc(F)cc2c1NC(=O)C1=COCCO1` was tested. Which “hERG current change (%, negative = inhibition) at 1uM” value did it give?
Its value is 6.76%.

Which “hERG current change (%, negative = inhibition) at 1uM” value does the source give for `CCCc1cc(=O)[nH]c(SCC(=O)NC(=O)NC2CCCC2)n1` here?
Its value is 9.98%.

For `CN(C)c1ccc(N2C(=NC(=O)c3ccccc3)SC3CS(=O)(=O)CC32)cc1` (centres unmarked), which “hERG current change (%, negative = inhibition) at 1uM” value is on record?
The value was 6.02%.

How did the “hERG current change (%, negative = inhibition) at 1uM” value turn out when `O=C(Nc1cccc(NC(=O)c2cccs2)c1)c1ccc(F)cc1` was run?
The value was 12.8%.

Which “hERG current change (%, negative = inhibition) at 1uM” value does the source give for `Cc1c(C#N)c(N)nc2c3c(sc12)NC(=O)CC3c1ccc(Cl)cc1` (centres unmarked) here?
Its value is 9.23%.

With `CCOc1ccc(CCNC(=O)COC(=O)COc2ccc(Cl)cc2)cc1OCC` as the compound, how does the “hERG current change (%, negative = inhibition) at 1uM” value read?
The value was 8.57%.

— PMC4336329 (PLoS ONE, 2015)
